# PMC12136788
# This is one part of the list.
# B1: chr2:37227669:37227839:-|CDS|ENSG00000115816|unk|FALSE|unique (ssRNA)
# RNA: GGGAGUUCUACAGUCCGACGAUCGUUUACUUUUGCUUUUUUCGGACUUGUGUCAAAAAAAAAGAUGUUGAAUCAAAAAUGCUUAGCGCCCUUUUAACAGGUGUGAAUAGGGCAUACCCUUAUUCCCAGACUGGUGAUGACAAACAACAGAGGAUUGAGCAUCA
# B2: chr11:36273890:36273991:-|3pUTR|ENSG00000110442|msi1|FALSE|unique (ssRNA)
# RNA: GGGAGUUCUACAGUCCGACGAUCGGUGAAGAAGUGGGAAUAAUUGGAACUAAACAACAGUUCUAAAACUUCCAUGAUUUUUGUAGCUUCUUUUGUCCCCAAGUUGAAGCUUUUGGCCAGUACCUUCUCUAGUUUUUAAAGAUGCAACAGAGGAUUGAGCAUCA
# B3: chr8:73241459:73241605:-|CDS|ENSG00000274443|control|control|control (ssRNA)
# RNA: GGGAGUUCUACAGUCCGACGAUCUGGCUUCAGUGAUCCUCUCACUGGAGCACCAUCUCAAUACUUAGAGAGACUUUCCAAAAUAGCCAUAUUGGAAUAUGAUACCAUUCGUCAGGAAACAACCACAAAAUCAAAAAAAAGCAACAACAGAGGAUUGAGCAUCA
# B4: chr1:24839915:24840022:+|CDS|ENSG00000169504|unk|total|mutant (ssRNA)
# RNA: GGGAGUUCUACAGUCCGACGAUCACCCUGCAGAAACUGGAUGAAUAUCUGAAUUCUCCUCUCCCUGAUGAAAUUGAUGAAAACCGUAUGGAGGACAUAAAGUUUUCUACACGUAAAUUUCUGGAUGGCAAUGAAAUGACAUUACAACAGAGGAUUGAGCAUCA
# B5: ENSG00000149257:stop:overlap|stop_codon|ENSG00000149257|stop_codon|NA|stop_codon (ssRNA)
# RNA: GGGAGUUCUACAGUCCGACGAUCCCCUGCUAUUCAUUGGGCGCCUGGUCCGGCCUAAGGGUGACAAGAUGCGAGACGAGUUAUAGGGCCUCAGGGUGCACACAGGAUGGCAGGAGGCAUCCAAAGGCUCCUGAGACACAUGGGCAACAGAGGAUUGAGCAUCA
# B6: chr11:27366961:27367062:-|3pUTR|ENSG00000205213|msi1|FALSE|unique (ssRNA)
# RNA: GGGAGUUCUACAGUCCGACGAUCUGAAUACUUCCUAAUAUCGUUGGCUCUACUAAUAUUUUCCAAUUUGCUGGGAUGUCACCUAGCAAUAGCUUGGAUUAUAUAGAAAGUAAACUGUGGUCAAUACUUGCAUUUAAUUAGACGCAACAGAGGAUUGAGCAUCA
# B7: chr3:25596636:25596694:+|3pUTR|ENSG00000077092|msi1_unk|FALSE|overlapping (ssRNA)
# RNA: GGGAGUUCUACAGUCCGACGAUCUCCCCAGUACCUUCAGUUCCAGGAUUUAAAAUGCAAGAAAAAACAUUUUUACUGCUGCUUAGUUUUUGGACUGAAAAGAUAUUAAAACUCAAGAAGGACCAAGAAGUUUUCAUAUGUAUCCAACAGAGGAUUGAGCAUCA
# B8: chr11:73401874:73401975:-|3pUTR|ENSG00000054965|unk|total|mutant (ssRNA)
# RNA: GGGAGUUCUACAGUCCGACGAUCUGCAGGGUUUGUCCUUUACUUAUCUGCCCCUUUCCCCGAAAACUCCUCGUUUCUGAAAUCCGGCAUUAUAUGGUUCCAGGACCCAGCCUUCAAAAUUCCUGGCAGGCCAGCUUCAACAUUCAACAGAGGAUUGAGCAUCA
# B9: chr11:113276847:113276948:+|3pUTR|ENSG00000149294|msi1|total|mutant (ssRNA)
# RNA: GGGAGUUCUACAGUCCGACGAUCAGAAGGGAAAAGCCAGCCCUUUGUACCGAAAUUUUGCUUUUUUUUCCCUCAUUCUACUUCCGAACUGCAAGCUUGUGCACUGUGGAUGCGUGAAUAUUUCCGUGUGAAACGUGUUUUUGUCAACAGAGGAUUGAGCAUCA
# B10: chr1:180885316:180885399:+|3pUTR|ENSG00000143324|msi1_unk|total|mutant (ssRNA)
# RNA: GGGAGUUCUACAGUCCGACGAUCUUGGCAGCCAUUUCUCCCAGCAGUUUUAAAGGAUGAACAUUGGAUUUCAUGCCAUCCCACCGAAAACCUGUUUUAAAAUUUCCGGGAUCUUUACUUGGUCAUACAUGAAAAGUACACUGCCAACAGAGGAUUGAGCAUCA
# B11: ENSG00000070961:be:win_2101|CDS|ENSG00000070961|bound_else_gene|NA|bound_elsewhere_windowed (ssRNA)
# RNA: GGGAGUUCUACAGUCCGACGAUCGGAAUUACUGUGCGGAUGGUCACUGGUGAUAAUAUUAAUACUGCUCGGGCCAUUGCUACCAAAUGUGGUAUUUUACAUCCUGGGGAAGAUUUUCUGUGCCUAGAAGGUAAAGAUUUUAACCAACAGAGGAUUGAGCAUCA
# B12: ENSG00000143476:stop:overlap|stop_codon|ENSG00000143476|stop_codon|NA|stop_codon (ssRNA)
# RNA: GGGAGUUCUACAGUCCGACGAUCCAUACUUCCAUAGAAAGUCCCAGGAGGACUUCUGUGGUCCUGAACACUCAACAGAAUUAUAGAUUCUAAUCUGAGUGAGUUACUGAGCUUUGGUCCACUAAAACAAGCUGAGCUUUGGUCCAACAGAGGAUUGAGCAUCA
# B13: chr1:110340924:110341033:+|CDS|ENSG00000162775|unk|total|mutant (ssRNA)
# RNA: GGGAGUUCUACAGUCCGACGAUCUGCUGCCUGGACCCAUAUGCGGGGCUUCCCACUUGGUGGCCCAGAUCGACGCCUCCGAGCCGACUUUGCCGACACCGAACAUCGUUACCAGCAGCAGUAUCUGCAGCCUCUGCCCUUGACCAACAGAGGAUUGAGCAUCA
# B14: chr12:123586815:123586897:+|5pUTR_CDS|ENSG00000086598|msi1_unk|FALSE|overlapping (ssRNA)
# RNA: GGGAGUUCUACAGUCCGACGAUCGAAUCCAGUGGGAAAUACACAUUUGCUGCUCACAUGGAUGGAACAUACAAAUUUUGUUUUAGUAACCGGAUGUCCACCAUGACUCCAAAAAUAGUGAUGUUCACCAUUGAUAUUGGGGAGCAACAGAGGAUUGAGCAUCA
# B15: chr12:907890:907991:+|CDS|ENSG00000060237|msi1|FALSE|bound_elsewhere (ssRNA)
# RNA: GGGAGUUCUACAGUCCGACGAUCGCCUCCUGCCAUGACGUCCAGCAGGAAGGGCACAUUCACAGAUGACUUGCACAAGUUGGUAGACAAUUGGGCCCGAGAUGCCAUGAAUCUCUCAGGCAGGAGAGGAAGCAAAGGGCACAUCAACAGAGGAUUGAGCAUCA
# B16: chr2:200823707:200823808:+|3pUTR|ENSG00000082153|msi1|total|mutant (ssRNA)
# RNA: GGGAGUUCUACAGUCCGACGAUCUGAGUAACUUUGAUAAAGUUUUUCAUGCACAGGCAAAAUGUAUUCACCCGAUUUCUACGCCGUGAUCUGCUUUUACUUUGUAAUUUGCCGUUCUCAAAAGACUUUUUUUUAAAAAAAUAACAACAGAGGAUUGAGCAUCA
# B17: chr11:75572625:75572772:+|3pUTR|ENSG00000149257|msi1|FALSE|unique (ssRNA)
# RNA: GGGAGUUCUACAGUCCGACGAUCUCUGGCGUUGUGGGGAUGAACUUUUUGUUUUGUUUCUUCCUUUUUUAGUUCUUCAAAGAUAGGGAGGGAAGGGGGAACAUGAGCCUUUGUUGCUAUCAAUCCAAGAACUUAUUUGUACAUCAACAGAGGAUUGAGCAUCA
# B18: chr15:63694043:63694144:-|CDS|ENSG00000103657|unk|FALSE|unique (ssRNA)
# RNA: GGGAGUUCUACAGUCCGACGAUCAGGACCUAUGCUGAUAAACUGAGUCCCAAAGUAGUUCAAUCCUUGUUGGAUCUACUCUGUAGUCAGUUGAAGAAUUUAUUGUCCCAAACUGGUGUACUACAUAUGGCCUCUUUCGGAGAACAACAGAGGAUUGAGCAUCA
# B19: ENSG00000169908:stop:overlap|stop_codon|ENSG00000169908|stop_codon|NA|stop_codon (ssRNA)
# RNA: GGGAGUUCUACAGUCCGACGAUCGAGGCAUAUGUGGCUUUUGCUGCUCUCACCAACAGGUAAGAACCUGCAUGAAAAUGUCGUAGUCUGGCCCUGGUGUUAAUAUACCAUUGUUUUCAUCAUAAAGAAAAAGGCAAAACCAAACAACAGAGGAUUGAGCAUCA
# B20: chr2:134980819:134981518:-|CDS|ENSG00000176601|control|control|control (ssRNA)
# RNA: GGGAGUUCUACAGUCCGACGAUCUGCUUGCAAGAGAACACUGUGAGCAUUUUCAUGGAGUUUGUUCCUGGUGGCUCAAUCUCUAGUAUUAUAAACCGUUUUGGGCCAUUGCCUGAGAUGGUGUUCUGUAAAUAUACGAAACAACAACAGAGGAUUGAGCAUCA
# B21: chr1:91680342:91683857:-|three_prime_utr|ENSG00000069702|control|control|control (ssRNA)
# RNA: GGGAGUUCUACAGUCCGACGAUCGUGCUGCCCACAGCAUCGGCAGCACGCAGAGCACGCCUUGCUCCAGCAGCAGCACGGCCUAGCCCAACCCAGCCCAACCCGGCCCAACCCAGCCCAGCCCAGCUCAGCUCAGCUACUGCCCAACAGAGGAUUGAGCAUCA
# B22: ENSG00000107863:be:win_1301|CDS|ENSG00000107863|bound_else_gene|NA|bound_elsewhere_windowed (ssRNA)
# RNA: GGGAGUUCUACAGUCCGACGAUCCUUUGCAGGGACGACGUCGAAGCACCUCUCAUGAUCGAGUGCCCCAGUCUGUCCAGAUACGGCAACGCAGUGUGUCCCAAGAAAGACUGGAAGAUUCUGUGCUAAUGAAGUAUUGUCCAACAACAGAGGAUUGAGCAUCA
# Target: MSI1 full-length (mouse, UniProt Q61474 1-362)
# UniProt Q61474, sequence (Q61474 whole entry): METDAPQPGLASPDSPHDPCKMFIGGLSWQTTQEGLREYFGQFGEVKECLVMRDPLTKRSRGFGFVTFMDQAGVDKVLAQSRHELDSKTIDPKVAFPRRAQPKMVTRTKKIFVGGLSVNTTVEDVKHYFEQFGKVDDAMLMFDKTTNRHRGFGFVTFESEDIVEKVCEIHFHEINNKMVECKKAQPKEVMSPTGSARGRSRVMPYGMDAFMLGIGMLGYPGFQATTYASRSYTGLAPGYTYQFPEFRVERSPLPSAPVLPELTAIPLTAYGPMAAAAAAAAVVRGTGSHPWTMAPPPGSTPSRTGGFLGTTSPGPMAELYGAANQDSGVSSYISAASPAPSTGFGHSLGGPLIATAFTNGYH
# Assay: nsRBNS (natural sequence RNA bind-n-seq); RBNS binding buffer (assumed for nsRBNS): 25 mM Tris pH 7.5, 150 mM KCl, 3 mM MgCl2, 0.01% Triton X-100, 500 ug/ml BSA, 20 U/ml SUPERase-In, 4 C; UNK is unkempt and MSI1 is Musashi-1; names of the RNAs are library labels; protein concentration not given here; high values mean tight binding
row,Binder,binding signal
1,B1,0.227 enrichment R
2,B2,0.705 enrichment R
3,B3,0.542 enrichment R
4,B4,0.192 enrichment R
5,B5,0.828 enrichment R
6,B6,0.875 enrichment R
7,B7,0.346 enrichment R
8,B8,0.588 enrichment R
9,B9,0.205 enrichment R
10,B10,0.166 enrichment R
11,B11,0.362 enrichment R
12,B12,0.943 enrichment R
13,B13,0.403 enrichment R
14,B14,0.443 enrichment R
15,B15,0.44 enrichment R
16,B16,0.312 enrichment R
17,B17,0.518 enrichment R
18,B18,0.197 enrichment R
19,B19,0.307 enrichment R
20,B20,0.338 enrichment R
21,B21,0.618 enrichment R
22,B22,0.274 enrichment R
